Laboratory results from PubChem BioAssay AID1745853 (National Center for Advancing Translational Sciences (NCATS), 2022).
The other results are listed elsewhere or left out. Shown are side measurements of this screen, not its main read-out; they come without a call.

Assays:
Assay in all cases: Primary Screen for Target Class Profiling of Small Molecule Inhibitors of Methyltransferases
[1] = target: Glycine N-methyltransferase (Homo sapiens) (UniProt Q14749); details: purified enzyme, MTase-Glo SAH luminescence; measured here: GNMT inhibition; at 40 µM; stronger effect = lower value
Method in brief: (§1)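 Each enzyme was reacted with SAM and its substrate, with compounds tested once at 40 uM; SAH formed was read by MTase-Glo luminescence.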

[2] = target: Guanidinoacetate N-methyltransferase (Homo sapiens) (UniProt Q14353); details: purified enzyme, MTase-Glo SAH luminescence; measured here: GAMT inhibition; at 40 µM; stronger effect = lower value
Method in brief: as §1

[3] = target: Histamine N-methyltransferase (Homo sapiens) (UniProt P50135); details: purified enzyme, MTase-Glo SAH luminescence; measured here: HNMT inhibition; at 40 µM; stronger effect = lower value
Method in brief: as §1

[4] = target: Nicotinamide N-methyltransferase (Homo sapiens) (UniProt P40261); details: purified enzyme, MTase-Glo SAH luminescence; measured here: NNMT inhibition; at 40 µM; stronger effect = lower value
Method in brief: as §1

[5] = target: Phenylethanolamine N-methyltransferase (Homo sapiens) (UniProt P11086); details: purified enzyme, MTase-Glo SAH luminescence; measured here: PNMT inhibition; at 40 µM; stronger effect = lower value
Method in brief: as §1
% is set by controls: 0 for no effect and ±100 for the full control effect.

| SMILES | activity change, negative = inhibition [1] [%] | activity change, negative = inhibition [2] [%] | activity change, negative = inhibition [3] [%] | activity change, negative = inhibition [4] [%] | activity change, negative = inhibition [5] [%] |
| --- | --- | --- | --- | --- | --- |
| CCn1nc(C)cc1S(=O)(=O)N[C@H]1[C@H]2CCO[C@H]2[C@@H]1N1CCCCC1 | -2.14 | -2.46 | -1.31 | -0.795 | -1.46 |
| CC1(C)CC[C@]2(C(=O)O[C@@H]3O[C@H](CO[C@@H]4O[C@H](CO[C@@H]5O[C@H](CO)[C@H](O)[C@H](O)[C@H]5O)[C@@H](O)[C@H](O)[C@H]4O)[C@@H](O)[C@H](O[C@@H]4O[C@H](CO)[C@@H](O)[C@H](O)[C@H]4O)[C@H]3O)[C@H](O)C[C@]3(C)C(=CCC4[C@@]5(C)CC[C@H](O[C@@H]6OC[C@@H](O)[C@H](O)[C@H]6O)[C@@](C)(C(=O)O)C5CC[C@]43C)[C@@H]2C1 (stereo partly drawn) | -2.23 | -7.14 | 3.81 | -19.5 | 3.16 |
| COc1ccc(-n2c(C)cc(CNS(=O)(=O)c3ccc4c(c3)oc(=O)n4C)c2C)cc1 | -0.421 | 0 | 11.4 | 3.78 | 8.15 |
| C=CCNC(=O)N[C@H]1[C@H](O)[C@@H](NCCOC)[C@@H]2OC[C@H]1O2 | -0.582 | 0.084 | 2.49 | -1.47 | 12.1 |
| COc1cccc(CN2C(=O)c3cc4sccc4n3CC2(C)C(=O)NC2CCCCC2C)c1OC (stereo not drawn) | 1.9 | 6.01 | 5.29 | -6.19 | -0.85 |
| Cc1ccc(Cn2c(=O)c3ccccc3n3c(SCC(=O)Nc4cc(C)cc(C)c4)nnc23)cc1 | 5.45 | 1.89 | 10.5 | 0.717 | 6.52 |
| C=CCC1(CO)CCCN(C(=O)CCCn2nc(C)cc2C)C1 (stereo not drawn) | -1.06 | 1.23 | 2.05 | -3.68 | -0.478 |
| CN1CCOC(c2ccccc2)c2ccccc2C1 (stereo not drawn) | 3.04 | 3.83 | -9.24 | -11.7 | 3.64 |
| Cn1cc(C(=O)N2CCC(N(Cc3ccccc3)C3CCOCC3)CC2)cn1 | -1.2 | -1.83 | 0.393 | 2.07 | 0.532 |
| Cc1ccc(Cn2nc3n(C)c(=O)c4ccc(C(=O)NC5CCCC5)cc4n3c2=O)cc1 | -2.04 | 1.2 | -3 | -1.88 | -0.693 |
| CCCn1c(=O)c2cc(F)ccc2n2c(SCc3cc(C)ccc3C)nnc12 | -13.9 | 2.58 | 0.989 | -8.77 | -3.15 |
| C=C1CC2C(C)(CCC(=O)O)C(C(C)(C)O)CCC2(C)C2C(=O)OC(C)(C(=O)OC)C(=O)C12C (stereo not drawn) | -0.772 | -7.31 | -5.98 | -18.6 | -2.66 |
| CCOCCCNc1nc2c(S(=O)(=O)c3ccc(C)cc3)nnn2c2ccccc12 | -9.01 | -2.46 | -5.76 | -5.6 | -11.6 |
| CC(c1ccc(-c2cc(N3CCN(C)CC3)nc(N)n2)cc1)N1CCOCC1 (stereo not drawn) | -3.02 | -0.952 | -34.3 | 0.366 | 2.25 |
| Cc1ccc(NC(=O)Cn2nc3n(CC(C)C)c(=O)c4ccc(C(=O)NCC(C)C)cc4n3c2=O)cc1C | 2.03 | 0 | 2.9 | 3.12 | 2.75 |
| COc1ccc(N2CCOCC2)c2sc(NC(=O)N3CCC(C)(O)CC3)nc12 | -22.1 | -7.94 | -1.14 | -18.4 | -31.6 |
| O=C1NC(=Nc2ccccc2F)S/C1=C\c1ccc(C(=O)O)cc1 | -4.16 | 3.84 | 9.61 | -10.6 | 4.71 |
| O=C1CN(Cc2ccc(F)cc2Cl)S(=O)(=O)c2ccccc2N1Cc1ccccc1F | 13.7 | 0.186 | 5.13 | 8.82 | 4.56 |
| COc1ccc(CCN2CCCC(CN(C)Cc3cnc[nH]3)C2)cc1 (stereo not drawn) | -4 | -2.53 | -46.6 | -8.78 | -3.6 |

| SMILES | activity change, negative = inhibition [1] [%] | activity change, negative = inhibition [2] [%] | activity change, negative = inhibition [3] [%] | activity change, negative = inhibition [4] [%] | activity change, negative = inhibition [5] [%] |
| --- | --- | --- | --- | --- | --- |
| CCN1C(=O)c2cc3ccccc3n2CC1(C)C(=O)NCC(=O)NCCCOC (stereo not drawn) | -7.2 | 2.67 | -1.97 | -5.77 | -5.31 |
| CCOc1ccc(CNC(=O)c2cc3n(n2)CC(C)(C(=O)NC2CCCC2)N(CC)C3=O)cc1OC (stereo not drawn) | 1.11 | 1.47 | 1.15 | 5.11 | 2.74 |
| CCCNC(=O)c1cc2n(n1)CC(C)(C(=O)NC1CCCCC1)N(C)C2=O (stereo not drawn) | 8.69 | 5.12 | 6.57 | 8.67 | 3.66 |
| CC1(C(=O)NC2CCCCC2)Cn2nc(-c3cccs3)cc2C(=O)N1Cc1ccc2c(c1)OCO2 (stereo not drawn) | -1.77 | 4.56 | 0.664 | 5.17 | 0.071 |
| CCCCNc1ccc(C(=O)OCCN(C)C)cc1 | -4.3 | 8.2 | 6.48 | -8.32 | -4.12 |
| CC(=O)Nc1ccc(-c2nnc3n(Cc4ccc(C)cc4)c(=O)c4ccccc4n23)cc1 | -8.5 | 1.24 | -3.05 | 0.505 | -3.9 |
| CC(C)Cn1c(=O)c2ccc(C(=O)NC3CCCC3)cc2n2c(=O)n(Cc3c(F)cccc3Cl)nc12 | -1.79 | 4.59 | 2.54 | 1.25 | 1.8 |
| CNC(=O)c1cn2c(n1)CN([S+](C)(=O)[O-])CC2 | -0.054 | -3.34 | 1.62 | -2.41 | -0.819 |
| COCC1CN(C(C)=O)CC12CCN(C(=O)c1nn(C)c3ccccc13)CC2 (stereo not drawn) | -0.448 | -1.18 | 2.52 | -3.16 | 2.64 |
| COc1ccc(NC(=O)c2ccc(-c3ccc(-c4noc(C)n4)cc3C)cc2)cc1N1CCN(C)CC1 | -14 | 2.62 | -14.1 | -8.07 | 1.96 |
| COc1cc(-c2onc(C)c2C(=O)NCCCOC(C)C)cc(OC)c1OC | 2.19 | 3.23 | 4.51 | -1.52 | -0.835 |
| CC(C)Oc1ccc(CNC(=O)C(C)n2ccc3cc(S(=O)(=O)N4CCCC4)ccc32)cc1 (stereo not drawn) | 1.76 | 0.493 | 1.89 | -4.31 | -2.65 |
| CCCC1c2cccn2CCN1C(=O)Nc1ccc(F)cc1F (stereo not drawn) | -0.419 | 0.127 | -39.8 | 4.89 | 4.49 |
| CCCN1C(=O)c2cc(C(=O)NCCCN3CCOCC3)nn2CC1(C)C(=O)NC1CCCC1 (stereo not drawn) | 7.66 | 0 | 6.34 | 5.6 | 3.99 |
| CNC(=O)c1cc(C2CC2)nc2onc(C3CCN(C(=O)c4ccc(Cl)nc4)C3)c12 (stereo not drawn) | -5.06 | -5.2 | 0.332 | -12.9 | 5.12 |
| Cc1cnc(Nc2ccc(F)cc2Cl)nc1-c1c[nH]c(C(=O)N[C@H](CO)c2cccc(Cl)c2)c1 | -15.8 | -24 | -10.8 | -40.6 | -12.8 |
| CC1(C(=O)NC2CCCCCC2)Cn2c(nc3ccccc32)C(=O)N1CC1CCCO1 (stereo not drawn) | -8.53 | 5.11 | 0.277 | 4.69 | 0.306 |
| c1cc(OCCN2CCCCC2)cc(-c2n[nH]c3ccc(-c4ncn[nH]4)cc23)c1 | -13.6 | -6.6 | -52.6 | -31.4 | -10.2 |
| O=C(c1ccccc1OC(F)(F)F)N1CCC2(CC1)CC(O)CCO2 (stereo not drawn) | -1.85 | -6.88 | -3.84 | 3.15 | -7.56 |

| SMILES | activity change, negative = inhibition [1] [%] | activity change, negative = inhibition [2] [%] | activity change, negative = inhibition [3] [%] | activity change, negative = inhibition [4] [%] | activity change, negative = inhibition [5] [%] |
| --- | --- | --- | --- | --- | --- |
| COc1cc(OC)c(N2C(=O)CSc3c(c4ccccc4n3C)C2C(=O)NCc2ccccc2)cc1Cl (stereo not drawn) | -5.31 | 5.05 | 0.04 | 0.107 | -1.47 |
| Cc1ccc(N2C(=O)c3cc4occc4n3CC2(C)C(=O)NC2CCCCC2)c(C)c1 (stereo not drawn) | 3.16 | 0.207 | 6.63 | 15.2 | 1.97 |
| Cc1cccc(CSc2nnc3n(CC(C)C)c(=O)c4cc(F)ccc4n23)c1 | 1.87 | 2.06 | 3.76 | -4.92 | 6.34 |
| CCCn1c(=O)c2ccc(C(=O)NC(C)CC)cc2n2c(=O)[nH]nc12 (stereo not drawn) | -7.25 | 1.32 | -2.17 | 5.29 | -12.9 |
| CC1(C)CN(C(=O)COc2ccccc2)CC(=O)N(Cc2ccccc2)C1 | -0.437 | -3.23 | 1.02 | -8.88 | -10.9 |
| CCCCCOC(=O)Nc1nc(=O)n([C@@H]2O[C@H](C)[C@@H](O)[C@H]2O)cc1F |  | 4.5 |  | -2.7 | 6.29 |
| Cc1ccc(-c2n[nH]n3c2nc(=O)c2ccc(C(=O)NCc4ccccc4)cc23)cc1 | -3.96 | -6.42 | -7.56 | -8.7 | -9.19 |
| CCC(C(=O)N(C)Cc1ccc(OC)c2ncccc12)n1cccn1 (stereo not drawn) | -13.7 | 0.085 | -2.27 | -2.46 | -1.15 |
| Cc1ccccc1CN1C(=O)c2nc3ccccc3n2CC1(C)C(=O)NC1CCCC1 (stereo not drawn) | -2.59 | -3.27 | -0.37 | -7.83 | -3.43 |
| CC(C)C[C@H](CC(=O)NO)C(=O)N[C@@H](Cc1ccc2ccccc2c1)C(=O)N[C@@H](C)C(=O)NCCN | 3.4 | 11.6 | 4.83 | -7.84 | 0.405 |
| Cn1c(=O)c2ccc(C(=O)NC3CCCC3)cc2n2c(SCC(=O)c3ccccc3)nnc12 | 4.76 | 2 | 8.83 | 2.48 | 1.61 |
| CC[C@H]1OC(=O)[C@](C)(F)C(=O)[C@H](C)[C@@H](O[C@@H]2O[C@H](C)C[C@H](N(C)C)[C@H]2O)[C@](C)(OC)C[C@@H](C)C(=O)[C@@H](C)[C@H]2N(CCCCn3cc(-c4cccc(N)c4)nn3)C(=O)O[C@]12C | 4.5 | 11.4 | 5.42 | -1.51 | 4.3 |
| Cc1cccc(-c2n[nH]n3c2nc(=O)c2ccc(C(=O)NCc4ccccc4)cc23)c1 | -19.2 | 4.84 | -5.49 | -3.58 | -6.73 |
| CCC(C)NC(=O)c1ccc2c(=O)n(Cc3ccccc3)c3nn(Cc4ccccc4Cl)c(=O)n3c2c1 (stereo not drawn) | 3.47 | 0 | 0.409 | 5.92 | -1.51 |
| CCCN1C(=O)c2c(C(=O)NCCc3ccccc3C)ncn2CC1(C)C(=O)NCCC(C)C (stereo not drawn) | -2.41 | 3.63 | -5.23 | -4.62 | -0.768 |
| O=C(Nc1ccn[nH]1)c1c(F)cccc1F | 1.44 | 9.34 | 1.59 | -13.1 | -10.9 |
| C=C1CC[C@@H]2[C@](C)(CO)[C@H](O)CC[C@@]2(C)[C@@H]1CC(=O)C1=CCOC1=O | 0 | -16.8 | 6.16 | -29.5 | -12.7 |
| C/C=C(/C)C(=O)OC1CC(C)(C)CC2C3=CCC4C5(C)CCC(O[C@@H]6O[C@H](C(=O)O)[C@@H](O)[C@H](O)[C@H]6O[C@@H]6O[C@H](CO)[C@H](O)[C@H](O[C@@H]7OC[C@H](O)[C@H](O)[C@H]7O[C@@H]7O[C@H](CO)[C@@H](O)[C@H](O)[C@H]7O)[C@H]6O)C(C)(C)C5CCC4(C)C3(C)C(O)C(O)C12CO (stereo partly drawn) | 2.34 | -3.49 | 6.94 | -15.8 | 3.04 |
